Measurements reported in publication PMC10755785 (The Journal of Biological Chemistry, 2023).
Positions count from the first letter of the chain named.

How the values were obtained:
Test in all cases: pull-down
RssB^D104A = target: T1, RssB^D104A (Escherichia coli, UniProt P0AEV1 1-337, D104A)
T1 sequence: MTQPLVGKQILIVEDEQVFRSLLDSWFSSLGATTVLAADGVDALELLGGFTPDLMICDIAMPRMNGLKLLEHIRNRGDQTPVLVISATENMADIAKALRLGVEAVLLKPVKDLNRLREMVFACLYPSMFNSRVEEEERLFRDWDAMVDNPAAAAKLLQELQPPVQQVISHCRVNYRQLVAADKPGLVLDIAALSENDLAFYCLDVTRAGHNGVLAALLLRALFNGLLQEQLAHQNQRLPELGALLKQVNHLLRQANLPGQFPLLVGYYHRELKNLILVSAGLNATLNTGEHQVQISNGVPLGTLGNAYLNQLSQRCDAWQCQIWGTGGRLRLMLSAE

RssB^R99D = target: T2, RssB^R99D (Escherichia coli, UniProt P0AEV1 1-337, R99D)
T2 sequence: T1 sequence with R99D, A104D

RssB^F129A;S131A = target: T3, RssB^F129A;S131A (Escherichia coli, UniProt P0AEV1 1-337, F129A | S131A)
T3 sequence: T1 sequence with A104D, F129A, S131A

- binding result (RssB^D104A): binds
- binding result (RssB^R99D): binds
- binding result (RssB^F129A;S131A): binds
B1: σ^s (RpoS), His-tagged (natural protein)
chain: not shown
